Data published in the supplement of paper PMC10126150.
Values marked as one replicate rest on one cluster of the flow cell; about a third of the high ones do not repeat.

Test system: ATP
Experiment: switch fluorescence ratio, 500 uM ATP over buffer (Cy3 cluster intensity, sum of 5 cycles each) (fold (ratio)); higher = stronger signal-on switching upon ATP binding; sequences stand for … in TCGTCGGCAGCGTCAGATGTGTATAAGAGACAGTTTTTTTTTTTTTTTTTTTTTTTTT…TC
Conditions: aptamer strand: ATP DNA aptamer (quencher-CACCTGGGGGAGTATTGCGGAGGAAGG + anchor), 100 nM annealed; ATP concentration: 500 uM; one replicate
Method in brief: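 Five buffer/ATP imaging cycles were run on Cy3-labelled switching-strand clusters on a modified Illumina MiSeq flow-cell, with NaOH stripping and re-annealing between cycles. In each cycle, clusters annealed to 100 nM quencher-labelled ATP aptamer were imaged in selection buffer, then after 15 min with 500 uM ATP at 22 °C. Per cluster, the fluorescence ratio is summed target-cycle over summed buffer-cycle Cy3 intensity, averaged per switch-domain sequence. Only clusters within 100-1000 RFU were kept.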
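Also: ATP exposure 15 min at 22 °C before imaging.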

Sequence	switch fluorescence ratio
TCTTATGAGA	0.955
GAATAGCTAA	1.06
TCGGGGTTG	0.977
ACTATGCGAA	1.13
GCAGCGAAGG	1.02
ATAGTATAAT	0.968
ACTGAGCGGT	1.01
ACCCACCCAC	1.52
TTGCCCCGAC	1.04
ATGTGTTAGG	1.02
ACTGAGAG	1.01
GTTCGGAGTT	1.03
TAGGAAGTG	0.981
ACTCCAGGGG	1.12
CGTTTATAG	1.03
GCGAATTTCG	1.01
GGTTAATCGC	1.03
TTTATCGTCG	1.05
AGGGCAACTT	1.09
TTGAAAATC	1.1
ATGGCGTACG	0.999
CGTGGTGTGG	1.01
CAGCTGGGAA	0.993
GCCTTTTAGT	1
ATGGGTACAG	0.999

Sequence	switch fluorescence ratio
GCTATATCTC	1.52
CGGACCATCC	1.6
TGTCCCTGCT	0.995
AGAGTAGGTG	0.983
CCGTCTTGAA	1.02
TAGTCCTGTT	0.962
AAACGGGTTT	0.97
AAACTATCAT	0.98
ATGAATGGGC	0.965
TTAAGGAAGA	1.08
ATTGATAGGT	0.993
GGCAGAACAT	1.05
TGAAAGTGT	1
ATCGCGCGTA	0.979
TGTGGGTTGT	1.01
ACACGCGGCA	1.06
GCCTGTAGTT	1.03
GGCGGGTGCC	1.02
GGGTTTGAGT	0.965
CTCGGGGGCG	1.1
GACGGGATGA	1.11
ACGAGAGTTT	1
TGTTACAAGC	1.06
TTAGTTCGAG	0.961
AGAAGAGACA	1.02

Sequence	switch fluorescence ratio
GATATTGATA	1
GAGGTACATG	1.01
GGTACTGGGT	1
GGAATAATTA	1.04
TTGTTCTTGC	0.975
TCAGGAGATT	1.01
GGACGTAGGA	0.954
CAAGCGGGTC	1.02
TCACAATCCC	1.02
TACGACGTTT	1.29
CTAACATTAC	1.53
GATCGGTCAT	0.99
GAGACCCGGT	1.02
GTTAATCCGC	1.89
ACTGTAATTA	1.1
ATGGACATGT	0.982
GGCATCAATG	1.01
TTGTCACGTC	0.981
TCGACGAGGA	1.15
GCATGCGATT	1
TCTGTGGCGC	0.981
TGGGTTGTAA	0.966
AGTCGGGTCC	1.04
TAAAGGAAG	0.982
TGTAAGTACT	1.01

Sequence	switch fluorescence ratio
AGTGGTCGTC	1.02
CAGACGGCAG	0.915
GAGCAGGTCC	0.915
TAGGCCTTAA	1.04
TGCGATTAAT	0.988
ACTCAACAGC	1.26
CCCCGCGTTT	3.65
ATCACCACCG	1.17
CGCATACTCG	4.82
AACATTGGGA	1.06
AGTAATGGAA	1.01
AAGAGCATCG	0.975
CGACATATGA	1.03
TTCGTCTTCT	0.962
CGATCCTTTC	1.47
AATCAATTAG	0.941
GACCACGAGC	1.01
CCCTTTGTTT	1.01
GGCGGCACCG	1.06
AGTCCGTGAT	1.73
CGATGTATTC	1.1
CCGACAGGTA	1.16
ACCTGTCCCA	1.02
CGCGGTCTAT	1.1
GAGTACTAAG	1.05

Sequence	switch fluorescence ratio
CGCCGTACTG	1.02
CGATGACGGA	0.921
ACGGTGAATT	1.03
AGGCATTTTT	0.959
CTATGACTCC	1.13
AATTGTTAAG	0.979
ACATTAGATA	1.05
GCTGTTGTTA	1.04
TAACTTGGCT	1.02
TACGTTACA	1.47
CGGGTAAAAT	0.989
CAGAGTTCCC	0.976
TATGTATCGA	1.02
ATAGTGGGG	0.937
GTCGTAGGCT	0.985
TGCAGGCGGA	1.01
GAAATGGGTA	0.99
CCGATCACAC	3.11
ATGTGGAGCA	0.994
TTTGTTGAAC	1.01
CTCGTGGTTG	0.988
ACTCTCCCCT	1.15
ACCAGAGTGG	1.06
ACTAGGAGGT	1.05
AATGCGGAAC	1.03

Sequence	switch fluorescence ratio
ACTGCGTCCG	1.18
TCATAGACAG	1.01
AGCTGATGAT	0.993
GATTTGCGG	1.04
CAGTGGACGA	0.957
AAGGGCTCCC	1.02
AGGTAATTGT	0.982
AAGAACTTAA	1.07
TAAACCTTCA	2.43
TATCACGAGA	1.05
CCGGGGAATT	1.11
ACGTCTCGGA	0.959
GCCATTATGG	1.01
GCGCCGAAAC	1.07
TTCATGGTCA	1.02
ACATCGGTGC	1.06
ATAATTGCGT	0.994
ACTGCCTTGG	1.01
GTTTATCAAG	0.985
TTAGTGGGCA	1.02
TGGCCTTTA	1.01
TGTTCAATAA	1.01
GTACCGAAGT	1.04
AATTTGCGGA	0.996
CATTTCTAAC	1.04

Sequence	switch fluorescence ratio
GTATAACCTT	1.61
AGCCTTGTTA	1.05
GCCATCCGGC	1
AAGTTACGAA	1.08
TTACTTTCTA	1.02
TTTCCTTAAA	1.37
AGGCGTCATT	1.01
CGAAGATCAG	0.971
CGCTATCCGT	1.04
TACGTAGGCT	1.05
AACTCTACGT	1.22
TGCCGAATG	0.976
GCTAATCCGT	0.997
GACTTACAAT	1.17
CCAATTTGCG	1.03
TGATTTTAGT	1.02
AGTATTTGTT	1.04
CACGACATTT	1.09
CGATGTACTT	1.05
TAAAGTGGAT	0.996
TAAAATTTAC	1.04
CTGAACCTGT	0.992
AGGCTATCGC	1.01
TTATATGCCT	1.06
TCTTGTGTTG	1

Sequence	switch fluorescence ratio
CACTAAGTTG	1.02
TCCATTTTAG	0.98
GGTAACGGAT	0.97
TTTGTGTA	0.981
GGGCTTGTTT	0.995
ATCTGTTTGT	0.998
TAACGTGTCA	1.03
AATTAGGGGC	0.957
TCGATAAACA	0.976
TTCGTCGTCA	0.985
TCCTATGACC	0.991
CAATCAAAGT	1.01
TAAATCTTCA	1.3
TCTGAACGTC	1.11
TGATTAACAG	0.99
TTTTCACATA	1.04
CGAGGTGTTG	1.01
TGACCTCTG	0.977
GACGCTTAGT	1.11
ACGTCGCGCG	0.993
CTCGGCTTCT	1.02
TGAAAATGTG	0.985
TACGTGCGAC	1.16
ACACGACTTT	1.09
CCAATTGATT	0.94
